Sequences with one replicate were seen in a single cluster, so their values are uncertain.
Test system: ATP
Experiment: switch fluorescence ratio, 500 uM ATP over buffer (Cy3 cluster intensity, sum of 5 cycles each) (fold (ratio)); higher = stronger signal-on switching upon ATP binding; sequences stand for … in TCGTCGGCAGCGTCAGATGTGTATAAGAGACAGTTTTTTTTTTTTTTTTTTTTTTTTT…TC
Details: aptamer strand: ATP DNA aptamer (quencher-CACCTGGGGGAGTATTGCGGAGGAAGG + anchor), 100 nM annealed; ATP concentration: 500 uM; one replicate
Method in brief: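 The quencher-labelled ATP aptamer, at 100 nM, was annealed to Cy3-labelled switching-strand clusters on a modified Illumina MiSeq flow-cell. The clusters were imaged in selection buffer, then after 15 min with 500 uM ATP at 22 °C, and this buffer/ATP cycle ran five times with NaOH stripping and re-annealing between runs. Per-cluster fluorescence ratios, summed target-cycle over summed buffer-cycle Cy3 intensity, were averaged per switch-domain sequence. Clusters outside 100-1000 RFU were excluded.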
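Note: ATP exposure 15 min at 22 °C before imaging.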

GTTTCAGGC
switch fluorescence ratio: 1.04

CCAGTGATAT
switch fluorescence ratio: 1.13

TAAATTTCGT
switch fluorescence ratio: 1.03

CTGGAATTGT
switch fluorescence ratio: 0.981

CCTTGGCAAG
switch fluorescence ratio: 3.72

GAGTCGCATA
switch fluorescence ratio: 1.1

GACCGCGCGC
switch fluorescence ratio: 1.01

GTAGGTCCGC
switch fluorescence ratio: 1.04

TCAGGTATGC
switch fluorescence ratio: 1

TATTACATTC
switch fluorescence ratio: 1.02

TGACATCAAA
switch fluorescence ratio: 1.01

CCTATGCACT
switch fluorescence ratio: 3.5

GAAGCTATA
switch fluorescence ratio: 2.27

CCTTGGACCA
switch fluorescence ratio: 0.972

AGACATTATG
switch fluorescence ratio: 1.06

ACTCTATTC
switch fluorescence ratio: 1.17

TCCTGATCCT
switch fluorescence ratio: 1.05

AATCATCCGG
switch fluorescence ratio: 1.06

TCCACAAGGG
switch fluorescence ratio: 1.17

TGCGGAAATG
switch fluorescence ratio: 1

TACCCATGAG
switch fluorescence ratio: 1.01

TGATAGCCCC
switch fluorescence ratio: 1.07

CGTATGAGTC
switch fluorescence ratio: 0.983

ACGGCCGGTT
switch fluorescence ratio: 1.06

GACCAGGAAG
switch fluorescence ratio: 0.933

TGACCTCGTA
switch fluorescence ratio: 0.994

GACGAAACCC
switch fluorescence ratio: 1.39

AACCGGAATA
switch fluorescence ratio: 1.05

AGTCAGGATA
switch fluorescence ratio: 1

GCTCAAAGCG
switch fluorescence ratio: 1.01

GTGGGGACAT
switch fluorescence ratio: 0.972

AAAGACACT
switch fluorescence ratio: 1.02

GCAGAGAGTT
switch fluorescence ratio: 0.984

AATCTTAC
switch fluorescence ratio: 1.25

TGGAATATCC
switch fluorescence ratio: 1.03

GGTTACTCCT
switch fluorescence ratio: 1.03

GGTCAGTGTA
switch fluorescence ratio: 0.996

AAAATGGGG
switch fluorescence ratio: 1.01

GGAGCTAGAG
switch fluorescence ratio: 2.83

CTGACTAAGG
switch fluorescence ratio: 1.08

TGCCCATTTG
switch fluorescence ratio: 0.988

GAAAAAAGC
switch fluorescence ratio: 1.08

GCTTGTTCTG
switch fluorescence ratio: 0.953

TCTTGATAGA
switch fluorescence ratio: 1.01

GCTGGCTTGT
switch fluorescence ratio: 0.98

CCGCCTGTTA
switch fluorescence ratio: 1.32

GCAGATGCT
switch fluorescence ratio: 0.984

TAGTTAAAAA
switch fluorescence ratio: 0.992

TGGGCAAATA
switch fluorescence ratio: 1.11

TTGGTTCAT
switch fluorescence ratio: 1.03

TAGTGATGAA
switch fluorescence ratio: 1.03

GATAATTTTA
switch fluorescence ratio: 1.03

GCTACGGGTT
switch fluorescence ratio: 0.974

CCTTCAGTCG
switch fluorescence ratio: 1.29

CGGACTCAAG
switch fluorescence ratio: 1.04

CAGCACAATT
switch fluorescence ratio: 1.05

CTGATTTAAT
switch fluorescence ratio: 0.996

CTGATTACC
switch fluorescence ratio: 1.04

GCCGGAGTTG
switch fluorescence ratio: 1.02

CCGATACATT
switch fluorescence ratio: 1.87

GGTAGAGCAG
switch fluorescence ratio: 0.996

TAAACATCA
switch fluorescence ratio: 1.04

TCGGGCTAAA
switch fluorescence ratio: 0.979

CATTTACGAC
switch fluorescence ratio: 1.11

CACTTGCCCT
switch fluorescence ratio: 1.04

CGTCAAATGA
switch fluorescence ratio: 1.03

ATCTGGTACC
switch fluorescence ratio: 1.03

ATTTCGACT
switch fluorescence ratio: 0.969

GGGGCTAAA
switch fluorescence ratio: 0.922

TATTGTCATA
switch fluorescence ratio: 0.977

GATTTATTCA
switch fluorescence ratio: 1.01

TTTCGGTAGA
switch fluorescence ratio: 1.02

ATTAGATAGA
switch fluorescence ratio: 1

TCTGTAATCT
switch fluorescence ratio: 1.08

AGCGAGAGCC
switch fluorescence ratio: 0.999

TGACGTAAGA
switch fluorescence ratio: 1.2

GCCTTCTGTC
switch fluorescence ratio: 0.931

GGAGCCATGG
switch fluorescence ratio: 1.06

TTGCGGGATT
switch fluorescence ratio: 1.06

TAGGTCGTCA
switch fluorescence ratio: 1.02

GCCACATTTC
switch fluorescence ratio: 1.06

CGGTAGATTG
switch fluorescence ratio: 1.01

CGACACTATC
switch fluorescence ratio: 2.93

CAAATTGGTC
switch fluorescence ratio: 1.05

GGGAAAATCG
switch fluorescence ratio: 0.969

TGATCGTACT
switch fluorescence ratio: 1.02

ACGAACGAGC
switch fluorescence ratio: 1.3

TGCTTCTGAG
switch fluorescence ratio: 1.03

CAATCTTTGG
switch fluorescence ratio: 0.992

ATTGATTCCG
switch fluorescence ratio: 1.05

ATGCGTATAT
switch fluorescence ratio: 1.03

GAAGTGACTC
switch fluorescence ratio: 1.11

AGGGATTAAG
switch fluorescence ratio: 0.97

TCAATTTTAC
switch fluorescence ratio: 2.02

GACAGCCTAC
switch fluorescence ratio: 1.89

AGGTGGTGCA
switch fluorescence ratio: 1.02

TAGCTGCGAA
switch fluorescence ratio: 1.01

CCGACAGGGA
switch fluorescence ratio: 1.19

CAATGGTACA
switch fluorescence ratio: 0.991

CTAACCTGTG
switch fluorescence ratio: 1.05

TTCGTCAT
switch fluorescence ratio: 1.37

AAGAACGCTG
switch fluorescence ratio: 0.948

CATTAGTATT
switch fluorescence ratio: 1.02

AACCATGACC
switch fluorescence ratio: 1.09

TGTTACATCA
switch fluorescence ratio: 1.03

TTACTAGGTC
switch fluorescence ratio: 0.996

ACAGAGTTAC
switch fluorescence ratio: 1.03

CGGGCTAACT
switch fluorescence ratio: 1.02

GGGCCGGAAG
switch fluorescence ratio: 1.02

CAGCTAAAAC
switch fluorescence ratio: 1.27

AGGCGTCCTG
switch fluorescence ratio: 1.02

GCGGGAACAC
switch fluorescence ratio: 1.03

TTGGCCAGGT
switch fluorescence ratio: 1.06

ATTTGCATAT
switch fluorescence ratio: 1.01

ATTTGAGTGG
switch fluorescence ratio: 0.98

AGTTACCCAA
switch fluorescence ratio: 1.03

TATGGTCGCG
switch fluorescence ratio: 0.985

AGAAGGAAGA
switch fluorescence ratio: 0.991

CCATTAGTGA
switch fluorescence ratio: 1.05

CTAGGGAGCG
switch fluorescence ratio: 0.953

GACTGTAGGG
switch fluorescence ratio: 1.02

TAACGTCCGT
switch fluorescence ratio: 1.02

CGGGTGACAA
switch fluorescence ratio: 1.01

AGTTGAGAAT
switch fluorescence ratio: 0.975

GAGCTGCCCG
switch fluorescence ratio: 0.928

CTGACTAGGA
switch fluorescence ratio: 0.985

AAGGTGTCA
switch fluorescence ratio: 1.04

GGCTTTACAC
switch fluorescence ratio: 1.03

TTCCAAACCT
switch fluorescence ratio: 1.09

GTGCCCTGCA
switch fluorescence ratio: 0.996

AATGATCGG
switch fluorescence ratio: 1.02

AGTTAGCGGT
switch fluorescence ratio: 0.978

ACCTAGATGG
switch fluorescence ratio: 0.966

ACGCCATCTC
switch fluorescence ratio: 1.22

AGAAGAGCAG
switch fluorescence ratio: 0.993

ACTGCCCGTC
switch fluorescence ratio: 1.1

AAGCCGGACT
switch fluorescence ratio: 1.07

ATGCCGATAT
switch fluorescence ratio: 1.04

CGACTCGTAG
switch fluorescence ratio: 0.999

GATTTACCTT
switch fluorescence ratio: 1.12

GTGGCATAAT
switch fluorescence ratio: 1.03

ATGACTGGTG
switch fluorescence ratio: 1.03

GCAGGGAGT
switch fluorescence ratio: 1

CATTGCTAC
switch fluorescence ratio: 1.89

GTTGTTCTAG
switch fluorescence ratio: 0.979

CGAATAAATG
switch fluorescence ratio: 0.983

AAGTGTCCAT
switch fluorescence ratio: 0.968

CATGGAGAAA
switch fluorescence ratio: 0.981

TACGATAGCA
switch fluorescence ratio: 1.12

TTAGTTCAGG
switch fluorescence ratio: 1.01

TATCTTACTT
switch fluorescence ratio: 1.05

GCGGCTAGTT
switch fluorescence ratio: 1

GCCTAGAGAA
switch fluorescence ratio: 1.03

ATCAGAGGAC
switch fluorescence ratio: 0.997

GTAGCCCTAG
switch fluorescence ratio: 1.01

CGTTATAGTA
switch fluorescence ratio: 0.981

GCCTGACTGT
switch fluorescence ratio: 1.06

Reference: the supplement of paper PMC10126150
